# Experimental data published in publication PMC4336329 (PLoS ONE, 2015).
# Among all 310,000 compounds or so, about 2,200 (0.71%) showed an effect of 50% or more. The effect is printed as a negative number. The list shows a part of the results.
# Target: human ether-à-go-go-related gene (hERG) potassium channel (human, UniProt Q12809)
# Assay: primary screen, population patch clamp on CHO cells stably expressing hERG
# human ether-à-go-go-related gene (hERG) potassium channel, sequence (Q12809 whole entry, looked up): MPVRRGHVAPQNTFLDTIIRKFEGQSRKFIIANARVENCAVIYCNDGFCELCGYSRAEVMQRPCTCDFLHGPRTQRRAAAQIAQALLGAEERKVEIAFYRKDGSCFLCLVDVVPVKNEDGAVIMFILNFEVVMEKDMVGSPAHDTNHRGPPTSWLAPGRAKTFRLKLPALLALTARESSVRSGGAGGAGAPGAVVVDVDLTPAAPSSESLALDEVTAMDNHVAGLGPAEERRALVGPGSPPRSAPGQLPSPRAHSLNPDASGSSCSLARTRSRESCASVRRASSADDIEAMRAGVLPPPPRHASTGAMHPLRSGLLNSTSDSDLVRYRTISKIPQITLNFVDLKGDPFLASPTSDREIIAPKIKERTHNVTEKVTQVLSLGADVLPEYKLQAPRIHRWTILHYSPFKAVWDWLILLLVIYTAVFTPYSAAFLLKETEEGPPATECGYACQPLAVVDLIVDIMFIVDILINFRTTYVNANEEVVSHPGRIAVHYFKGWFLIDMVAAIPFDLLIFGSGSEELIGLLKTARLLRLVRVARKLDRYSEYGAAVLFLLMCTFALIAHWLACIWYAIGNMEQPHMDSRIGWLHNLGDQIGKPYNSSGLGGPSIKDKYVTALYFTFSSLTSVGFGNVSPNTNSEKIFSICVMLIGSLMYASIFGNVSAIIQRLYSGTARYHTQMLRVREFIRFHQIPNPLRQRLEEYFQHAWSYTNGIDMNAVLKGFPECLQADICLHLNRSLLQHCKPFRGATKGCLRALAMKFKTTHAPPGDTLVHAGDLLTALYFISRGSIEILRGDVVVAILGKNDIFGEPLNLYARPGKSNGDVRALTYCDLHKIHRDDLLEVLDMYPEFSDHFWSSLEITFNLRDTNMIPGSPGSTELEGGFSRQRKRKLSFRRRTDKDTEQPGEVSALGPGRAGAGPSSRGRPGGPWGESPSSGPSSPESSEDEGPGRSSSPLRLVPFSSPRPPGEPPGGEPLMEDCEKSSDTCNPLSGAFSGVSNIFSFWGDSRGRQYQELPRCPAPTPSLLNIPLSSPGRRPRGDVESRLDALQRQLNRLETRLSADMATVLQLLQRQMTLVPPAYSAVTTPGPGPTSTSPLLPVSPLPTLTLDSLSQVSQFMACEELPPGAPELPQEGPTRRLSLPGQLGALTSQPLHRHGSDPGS
row,Structure (SMILES),"hERG current change (%, negative = inhibition) at 1uM [%]"
1,O=C(CSc1nnc(CNC(=O)c2c(F)cccc2F)o1)NCc1ccccc1,8.94
2,CC12CCC(C(=O)N3CCCCCC3)(OC1=O)C2(C)C (stereo not shown),14.4
3,Cc1cccc(C)c1NC(=O)CNC(=O)CCNC(=O)c1ccco1,1.97
4,O=C(Cn1nnc2ccccc21)C1CC1,1.07
5,Cc1cc[n+](Cc2ccc([N+](=O)[O-])cc2)cc1.[Br-],5.5
6,Cc1cnc(C(=O)OCC(=O)c2ccc(F)cc2)cn1,13
7,CCOC(=O)CCC(NC(=O)c1ccc(NCN2C(=O)CCC2=O)cc1)C(=O)OCC (stereo not shown),7.89
8,COc1cc(/C=C/c2ccc3cccc(O)c3n2)cc(OC)c1OC,10.8
9,COC(=O)c1ccccc1NC(=O)Nc1nnc(N2CCCCC2C)s1 (stereo not shown),10
10,Cc1ccc(N(Cc2ccccc2)C(=O)c2ccc(F)c(S(=O)(=O)N3CCOCC3)c2)cc1,-30.5
11,Nc1cc(=O)nc(SCC(=O)N(C2CCCCC2)C2CCCCC2)n1-c1ccccc1,16.3
12,Cc1ccc(C)c(OCc2cc(C(=O)NC3CCN(Cc4ccccc4)CC3)no2)c1,13.2
13,COCCOC(=O)C1=C(C)NC2(O)c3ccccc3C(=O)C12O (stereo not shown),12.2
14,O=C(c1c(F)cccc1Cl)N1CCN(c2ccccn2)CC1,10.5
15,O=C(CCCCCN1C(=O)[C@@H]2Cc3ccccc3CN2C1=O)NCCc1ccccc1,-1.5
16,O=C(NCc1ccncc1)c1cc(C(=O)C2CC2)c[nH]1,12.5
17,N#C/C(=C\c1cccnc1)c1ccccc1[N+](=O)[O-],8.35
18,COc1ccc(C2(O)CCN(C(=O)Cc3cccnc3)CC2)cc1,7.45
19,COc1ccc(-c2csc(NC(=O)COc3ccc(N(C)S(=O)(=O)c4ccc(C)cc4)cc3)n2)cc1,5.15
20,Cc1cc2nnc(SCC(=O)NCc3ccco3)n2c2ccccc12,11.1

row,Structure (SMILES),"hERG current change (%, negative = inhibition) at 1uM [%]"
1,COc1ccc(NC2=CC(=O)N(C)C2=O)cc1,16.3
2,O=C(/C=C/c1ccccc1)NCCC1=CCCCC1,9.38
3,Cc1ccc(CNC(=O)c2ccc(NC(=O)CCS(=O)(=O)c3cccs3)cc2)cc1,10.5
4,Cl.O=C(CN1CCCC1)NCC1(c2ccccc2)CCOCC1,11.3
5,CCc1ccc(C(=O)OCC(=O)c2c(N)n(CC(C)C)c(=O)n(C)c2=O)cc1,10
6,COc1ccc(-c2cc(C(F)(F)F)nc(N3CCN(C)CC3)n2)cc1,7.78
7,O=C(c1cn(-c2ccccc2)nc1-c1ccc(Br)cc1)N1CCOCC1,8.27
8,O=C(COc1ccccc1)N1CCN(C(=O)c2cccs2)CC1,0.419
9,CSc1cc(-c2ccco2)oc1C(=O)c1ccco1,8.55
10,Cc1ccc(NC(=O)CCNS(=O)(=O)c2cccc3nonc23)cc1Cl,14.8
11,O=C(N/N=C/C=C/c1ccccc1)c1cc(C2CC2)[nH]n1,0.149
12,Cc1cccc2[nH]c(CN(C)C(=O)C3CCC(=O)N(C4CC4)C3)nc12 (stereo not shown),17.9
13,CC1CC(C)CN(S(=O)(=O)c2ccc(C(=O)N3CCCC3)cc2)C1 (stereo not shown),-9.59
14,COc1ccc(/C=C(/C(=O)Nc2ccccc2C(=O)NC(C)C)c2ccccc2)cc1,9.53
15,S=C(NCc1ccco1)N/N=C/c1cccnc1,1.39
16,NC1=NC2(CCCCC2)N=C(Nc2ccc(F)cc2F)N1,5.43
17,O=C(O)C(=O)O.O=S(=O)(c1ccccc1C(F)(F)F)N1CCN(CC(O)COc2ccccc2F)CC1 (stereo not shown),18.3
18,Cc1ccccc1CN1CCCNC1=O,3.46
19,COc1cc(/C=C2/C(=N)N3C=CSC3=NC2=O)ccc1OCCOc1ccc(NC(C)=O)cc1,12
20,CC(C)Oc1ccccc1/C=N/Nc1ccccc1[N+](=O)[O-],10.4

row,Structure (SMILES),"hERG current change (%, negative = inhibition) at 1uM [%]"
1,Cc1[nH]c2ccccc2c(=O)c1CN(C)Cc1ccccc1,-7.79
2,CCCOc1ccc(C(=O)Nc2ccc3c(c2)OCO3)cc1,11.4
3,c1ccc2[nH]c(NC3=NCCC3)nc2c1,5.16
4,Cc1nc2c3ccccc3nc(SCC(=O)c3ccc(Cl)cc3)n2n1,8.88
5,Cc1cc(C)n(C(=O)CNC(=O)c2ccc(C(C)(C)C)cc2)n1,10.9
6,COc1ccc(C(=O)Nc2ccc(NC(C)=O)cc2)cc1S(=O)(=O)N(C)Cc1ccccc1,15.4
7,CC1CCc2c(sc3ncnc(NCCN4CCOCC4)c23)C1 (stereo not shown),-13.1
8,O=C(CCNC(=O)c1ccccc1Cl)Nc1ccc(Br)c(C(F)(F)F)c1,16
9,Cc1c(Cl)cccc1S(=O)(=O)Nc1ccnn1C,9.21
10,COCCn1c(=O)[nH]c2cc(C(=O)Nc3cc(C)cc(C)c3)ccc2c1=O,14.8
11,Cc1ccnc2c(N3C(=O)C4C5c6ccccc6C(c6ccccc65)C4C3=O)cccc12 (stereo not shown),1.54
12,O=c1c(Cc2ccc(F)cc2)c(O)ccn1CC1CCCO1 (stereo not shown),14.2
13,COc1ccc(NC(=O)Cc2cccc3ccccc23)cc1,8.5
14,CSc1oc(-c2ccco2)nc1S(=O)(=O)c1ccc(Br)cc1,7.95
15,Cl.N[C@@H](Cc1c[nH]c2ccccc12)c1nnc(SCc2ccccc2F)o1,5.36
16,O=C(Nc1ccc(F)c(Cl)c1)N1CCCCCC1,12.1
17,Cc1onc(-c2ccccc2Cl)c1-c1nc(-c2ccncc2)no1,12.6
18,O=S(=O)(c1ccccc1)c1nc(-c2ccco2)oc1NCCN1CCOCC1,-13.2
